The record followed here is PMC4336329 (PLoS ONE, 2015).

The campaign covered roughly 310,000 compounds. About 2,200 (0.71%) showed an effect of 50% or more. Effects have a minus sign here. The list shows a part of the results.

Sequence of human ether-à-go-go-related gene (hERG) potassium channel (Q12809 whole entry, looked up): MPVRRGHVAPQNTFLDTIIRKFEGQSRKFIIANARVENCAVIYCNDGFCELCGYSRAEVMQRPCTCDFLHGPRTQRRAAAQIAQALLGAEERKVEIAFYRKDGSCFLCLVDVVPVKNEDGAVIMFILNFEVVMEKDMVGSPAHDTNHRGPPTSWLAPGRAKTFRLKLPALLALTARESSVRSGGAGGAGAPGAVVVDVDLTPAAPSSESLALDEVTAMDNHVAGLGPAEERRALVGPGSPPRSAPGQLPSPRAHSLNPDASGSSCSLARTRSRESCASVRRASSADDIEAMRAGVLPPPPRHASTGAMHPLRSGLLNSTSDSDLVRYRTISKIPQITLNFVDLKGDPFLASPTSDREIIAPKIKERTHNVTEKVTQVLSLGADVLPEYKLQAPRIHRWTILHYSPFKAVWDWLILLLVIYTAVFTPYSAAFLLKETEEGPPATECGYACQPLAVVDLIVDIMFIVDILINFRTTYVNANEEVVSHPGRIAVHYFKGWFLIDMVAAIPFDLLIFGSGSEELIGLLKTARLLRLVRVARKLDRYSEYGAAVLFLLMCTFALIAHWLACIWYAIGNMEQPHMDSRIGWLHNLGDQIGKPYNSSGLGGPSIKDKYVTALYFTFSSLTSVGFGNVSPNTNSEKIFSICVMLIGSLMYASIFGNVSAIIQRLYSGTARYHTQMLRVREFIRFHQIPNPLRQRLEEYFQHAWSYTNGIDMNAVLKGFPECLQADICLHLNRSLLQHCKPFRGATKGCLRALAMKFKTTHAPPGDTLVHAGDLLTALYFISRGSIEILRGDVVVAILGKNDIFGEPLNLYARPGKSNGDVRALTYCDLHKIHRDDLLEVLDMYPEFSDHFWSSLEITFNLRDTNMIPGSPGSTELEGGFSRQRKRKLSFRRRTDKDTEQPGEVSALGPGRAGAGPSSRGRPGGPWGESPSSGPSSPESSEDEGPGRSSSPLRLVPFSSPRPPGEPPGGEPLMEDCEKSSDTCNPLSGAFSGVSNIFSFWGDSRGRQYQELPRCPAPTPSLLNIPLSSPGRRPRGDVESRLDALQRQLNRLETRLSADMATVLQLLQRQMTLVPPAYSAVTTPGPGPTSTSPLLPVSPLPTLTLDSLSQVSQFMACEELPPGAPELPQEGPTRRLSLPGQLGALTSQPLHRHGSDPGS

The experiment addresses human ether-à-go-go-related gene (hERG) potassium channel (human, UniProt Q12809). Briefly: primary screen, population patch clamp on CHO cells stably expressing hERG.
Take `COc1ccc(Oc2c(Cl)cnn(-c3ccc(F)cc3)c2=O)cc1`: the “hERG current change (%, negative = inhibition) at 1uM” value is listed as 1.94%.
Take `Cc1cccc(NC(=O)CC2(CC(=O)O)CCCC2)c1`: the “hERG current change (%, negative = inhibition) at 1uM” value was determined as 21.6%.
As for `CCCCC(=O)Nc1ccc(C(=O)NNC(=O)CCc2ccccc2)cc1`, the figure is 15.2%.
For the compound `COc1ccc(CCNC(=O)CSc2nnc3ccc(-c4ccccn4)nn23)cc1`, the “hERG current change (%, negative = inhibition) at 1uM” value was -18.4%.
As for `CN(CC(=O)Nc1ccccc1C(F)(F)F)C(=O)CCc1nc2sc3c(c2c(=O)[nH]1)CCCC3`, the figure is 15.9%; as for `O=C(COC(=O)CCN1C(=O)/C(=C\C=C\c2ccccc2)SC1=S)Nc1ccc(Br)cc1`, 3.88%; as for `CCCCNc1nc2ccccc2n1CC(=O)Nc1ccc2c(c1)OCCO2`, -2.26%.
As for `Cc1cccc(CCNS(=O)(=O)c2ccc(S(=O)(=O)N3CCC(C)CC3)cc2)c1`, the figure is 1.88%; as for `O=[N+]([O-])c1cccc(-c2n[nH]c(=S)n2-c2ccc(Br)cc2)c1`, 9.45%; as for `CC1CCCC(NC(=O)c2ccc3c(SCC(=O)O)c4c(nc3c2)CCC4)C1C` (stereo not shown), 14.2%.
As for `COc1ccc(/C=C2/SC(=S)N(CCCC(=O)Nc3ccc(O)cc3)C2=O)cc1OC`, the figure is 1.83%; as for `O=C1NC(=S)N/C1=C\c1cccnc1`, 10.8%; as for `COc1ccc(C2(O)C(=O)Nc3ccc(C)cc32)cc1` (stereo not shown), 13.4%.
For `O=C1c2cccc([N+](=O)[O-])c2C(=O)N1c1cccnc1`, the “hERG current change (%, negative = inhibition) at 1uM” value was found to be 16.7%.
As for `CNC(=O)c1c(NC(=O)CS(=O)(=O)c2ccc(Cl)cc2)sc(C)c1C`, the figure is -3.47%; as for `COc1ccc(C(=O)NCC(=O)NCC2COc3ccccc3O2)cc1` (stereo not shown), 6.11%; as for `COC(=O)Cn1c2ccccc2c2nc(=O)cc(C)n21`, 8.48%.
As for `COc1ccc(N2C(=O)C3C(C2=O)C(C(=O)c2ccc(Cl)cc2)N2CCCC32)cc1` (stereo not shown), the figure is 4.57%; as for `CC(C)(C)NC(=O)COc1coc(CN2CCN(C(=O)c3ccco3)CC2)cc1=O`, 11.7%; as for `O=C(Nc1ccc(S(=O)(=O)Nc2nccc(C3Cc4ccccc4C(=O)O3)n2)cc1)c1ccccc1` (stereo not shown), -3.06%.
As for `O=C(O)Cn1c(P(=O)(O)c2ccccc2)nc2ccccc21`, the figure is 17.3%; as for `COc1ccc(-c2cc3ccccc3oc2=O)cc1`, 9.73%.
With `CC(OC(=O)c1cc(Br)ccc1O)C(=O)NCc1ccc2c(c1)OCO2` (stereo not shown), the “hERG current change (%, negative = inhibition) at 1uM” value came to 4.73%.
As for `COc1ccc(C2C(C(=O)Nc3ccccc3)=C(C)Nc3nc(CCCO)nn32)cc1` (stereo not shown), the figure is 11.2%; as for `CC(CC(=O)Nc1cc([N+](=O)[O-])ccc1Cl)c1ccccc1` (stereo not shown), 9.98%.
As for `CC(=O)Nc1ccc(S(=O)(=O)NC2=NCN(c3cccc([N+](=O)[O-])c3)CN2)cc1`, the figure is 8.7%; as for `COc1ccc(CNC(=O)CSc2nc3c(oc4ccccc43)c(=O)n2CC2CCCO2)cc1` (stereo not shown), -0.0282%; as for `COc1cccc2c1O[C@H]1C(=O)CC[C@H]3CN(C)CCC231` (stereo partly shown), 16.6%.
As for `COc1ccc(C(=O)Nc2c(Cl)cc(Cl)cc2C(=O)NCCN2CCOCC2)cc1`, the figure is -16.5%.
For `CCCc1cc(=O)oc2cc(C)cc(OCC(=O)O)c12`, the “hERG current change (%, negative = inhibition) at 1uM” value is reported as 14.8%.
As for `COCCCn1c(SCC(=O)N2CCOCC2)nc2ccccc2c1=O`, the figure is 4.37%; as for `O=C(CCN1C(=O)C2C3C=CC(C4CC34)C2C1=O)OCC(=O)c1ccccc1` (stereo not shown), 7.66%.
As for `CCOc1ccc(C(C)=O)cc1COC(=O)CNC(=O)c1cccs1`, the figure is 8.53%.
As for `CCCNC(=O)C(CC)NC(=O)c1cccc([N+](=O)[O-])c1` (stereo not shown), the figure is 16.7%; as for `CCC(=O)NC(c1cccc([N+](=O)[O-])c1)c1c(O)ccc2ccccc12` (stereo not shown), 18.5%.
For the compound `CC(C)CCn1c(Oc2ccccc2Cl)nc2c1c(=O)n(C)c(=O)n2C`, the “hERG current change (%, negative = inhibition) at 1uM” value was determined as 3.76%.
As for `C#CCn1c(=NC(=O)c2cccs2)sc2cccc(OC)c21`, the figure is 14.7%; as for `Cc1cc(C)n(-c2ccc(C(=O)OCC(=O)Nc3ccc(Cl)c(S(=O)(=O)N(C)C)c3)cc2)n1`, -0.413%.
As for `Cc1cccc(C(=O)O)c1[N+](=O)[O-]`, the figure is 9.69%; as for `CC1CCCC(N2CCN(C(=O)c3ccccc3F)CC2)C1` (stereo not shown), 11.2%; as for `COc1ccc(C2=NN(C(=O)/C=C/c3ccccc3)C(c3ccccc3)C2)c(OC(C)=O)c1` (stereo not shown), 6.02%.
As for `CC(=O)Nc1ccc(NC(=O)CSc2nnc3ccc(-c4ccc(F)cc4)nn23)cc1`, the figure is 14.2%.
Turning to `O=[N+]([O-])c1cccc(-c2ncc3ccccn23)c1`, the “hERG current change (%, negative = inhibition) at 1uM” value came to 3.34%.
As for `COc1ccc(-n2nc(C(=O)NCC(=O)NCc3ccco3)c3ccccc3c2=O)cc1Cl`, the figure is -0.212%; as for `S=C(c1cn(CCOc2ccccc2)c2ccccc12)N1CCCC1`, 7.78%; as for `CCOc1cc(S(=O)(=O)N2CC=C(c3ccc(F)cc3)CC2)c(OCC)cc1-n1cnnn1`, 2.64%.
As for `Cc1ccc(OCC(=O)N/N=C/c2cn[nH]c2-c2ccc(Cl)c(Cl)c2)cc1`, the figure is 13.2%.
In the case of `COc1ccc(C(=O)Cc2cc(OC)c(OC)cc2[N+](=O)[O-])cc1`, the “hERG current change (%, negative = inhibition) at 1uM” value is listed as 13.6%.
As to `CC1=NOC2(C1)N(C)c1ccccc1C2(C)C` (stereo not shown), the “hERG current change (%, negative = inhibition) at 1uM” value came out at 9.47%.
As for `CCc1cc2c(=O)n(CC(=O)NCCc3ccc(OC)c(OC)c3)cnc2s1`, the figure is 10.2%; as for `Cc1cc(NS(=O)(=O)c2ccccc2)n(-c2ccccc2)n1`, 3.7%.
For the compound `Oc1cccc(/C=N/N(Cc2ccccc2)c2ccccc2)c1`, the “hERG current change (%, negative = inhibition) at 1uM” value amounted to 2.4%.
`CCCC(c1nnnn1C1CCCCC1)N1CCN(C2CCCC2)CC1.Cl` (stereo not shown): the “hERG current change (%, negative = inhibition) at 1uM” value is on record as -16.6%.
As for `FC(F)(F)c1ccccc1-c1nc(-c2ccncc2)no1`, the figure is 10.7%; as for `CC(C)COc1ccc(Br)cc1CNC(C)(C)C.Cl`, -7.74%; as for `CCN(CC)c1nc2c(c(=O)n(C)c(=O)n2C)n1CCCc1ccccc1`, 6.99%.
Take `COc1cc(/C=C(\C#N)c2ccccn2)ccc1OCC(=O)Nc1c(Cl)cccc1Cl.Cl`: the “hERG current change (%, negative = inhibition) at 1uM” value stood at 15.7%.
Consider `CCOc1ccccc1NC(=O)Nc1ccc(CC#N)cc1`, for which the “hERG current change (%, negative = inhibition) at 1uM” value is given as 6.25%.
As for `O=C(Nc1ccccc1)c1ccccc1OS(=O)(=O)c1ccccc1`, the figure is 13.1%; as for `CCOc1ccc(N2C(=O)/C(=C/c3ccccc3)N=C2SC)cc1`, 10.1%.
Regarding `Cc1cccc(Nc2nnc(SCC(=O)c3c(N)n(C4CC4)c(=O)[nH]c3=O)s2)c1`, the “hERG current change (%, negative = inhibition) at 1uM” value was found to be 10.9%.
On to `Cc1ccc(CNC(=O)Nc2ccc3c(c2)N(C)C(=O)CS3)cc1`, for which the “hERG current change (%, negative = inhibition) at 1uM” value turned out to be 12.7%.
As for `CCOc1ccccc1OCC(=O)Nc1cc2c(cc1C(=O)O)OCCCO2`, the figure is 12.6%; as for `Oc1ccccc1/C=N/NC(=S)NC1CC2CC1C1C=CCC21` (stereo not shown), 20.3%; as for `COc1cc(-c2ccccc2)[nH]c(=S)n1`, 19.1%.
As for `COc1ccc(C(=O)CSc2nc3ccc([N+](=O)[O-])cc3[nH]2)cc1`, the figure is 6.41%.
With `Cc1ccc(N(CC(=O)NC2CCCCC2C)S(=O)(=O)c2c(C)noc2C)cc1` (stereo not shown), the “hERG current change (%, negative = inhibition) at 1uM” value is on record as 7.21%.
As for `CCCc1cnc(N2CCN(C(=S)NC)CC2)nc1`, the figure is -1.85%.
As for `O=C1CCCC/C1=N\Nc1ccc(C2CCCCC2)cc1`, the “hERG current change (%, negative = inhibition) at 1uM” value is 17.8%.
Turning to `Cc1cc(C(=O)N2CCN(c3ccc([N+](=O)[O-])cc3)CC2)co1`, the “hERG current change (%, negative = inhibition) at 1uM” value is listed as -64.7%.
As for `O/N=C\c1ccccc1Oc1ccc(F)cc1`, the figure is 16.2%.
For the compound `CCCCOC(=O)c1ccc(NC(=S)NC(=O)c2c(Br)c(C)nn2C)cc1`, the “hERG current change (%, negative = inhibition) at 1uM” value is given as 15%.
As for `CCc1ccc(S(=O)(=O)/N=C2\C=C(Nc3cccc(C(=O)O)c3)C(=O)c3ccccc32)cc1`, the figure is -1.15%; as for `O=C1CCN(Cc2ccc(Cl)cc2)N1`, 12.9%; as for `Cc1ccc(C)c(N2N=C(C(=O)Nc3ccccc3N3CCOCC3)CCC2=O)c1`, -12.6%.
As for `Cc1cc(=O)[nH]c(SCC(=O)N2CCCc3ccccc32)n1`, the figure is 7.34%; as for `O=C(CSCc1ccc(Cl)cc1)c1ccco1`, 5.67%.
As for `CCCOc1ccc(-c2csc3nc[nH]c(=O)c23)cc1`, the figure is 18%; as for `O=C(Nc1ccccc1Sc1ccccc1)c1ccccc1F`, 4.1%.
In the case of `O=C1SCCC1NS(=O)(=O)c1ccc([N+](=O)[O-])cc1` (stereo not shown), the “hERG current change (%, negative = inhibition) at 1uM” value was 1.84%.
As for `CCN(CC)S(=O)(=O)c1ccc(N2CCc3cc(OC)c(OC)cc3C2)nc1`, the figure is 7.15%; as for `Cc1nn(C)cc1CNC(=O)Nc1ccc(Cl)cc1`, 1.56%; as for `CC1(C)OC(=O)C(=CNCC(=O)NCC(=O)O)C(=O)O1`, 8.39%.
As for `Nc1ccccc1C(=O)N/N=C1/C2CN3CCN(C2)CC1(Cc1ccccc1)C3`, the figure is -2.94%.
For the compound `CN1CCN(/N=C/c2nc(-c3ccccc3)n3ccccc23)CC1`, the “hERG current change (%, negative = inhibition) at 1uM” value was -0.698%.
As for `O=C(Nc1cccc(-c2nc3ccccc3[nH]2)c1)c1ccc(C(=O)Nc2cccc(-c3nc4ccccc4[nH]3)c2)cc1`, the figure is 14.6%.
As for `O=C(NCc1ccc(F)cc1)c1c2c(nc3ccccc13)CCN(Cc1ccccc1)C2`, the figure is 0.811%; as for `CC(=O)c1cccc(NC(=O)CN2CCN(S(=O)(=O)/C=C/c3ccccc3)CC2)c1`, -4.4%.
